Results on 40 compounds are retold here after article PMC12040169 (PLOS Biology, 2025).

The structures appear in SMILES notation. Some of the results follow.

The subject of the assay is T1, C. trachomatis L2/434/Bu expressing GFP (CTL2-GFP).
T1 construct: L2/434/Bu GFP intracellular growth in HeLa cells
More on the design: species or system HeLa; C. trachomatis total inclusion area by high-content imaging, normalised to DMSO. The settings on record: total inclusion area; 28.5 h, 10 µM; inhibitor. A digest of the protocol:
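High-content images of fixed, Hoechst-stained infected cultures supply inclusion area and count (growth) plus nuclei number (viability), complementing bulk GFP/resorufin fluorescence. MIC determination is unchanged from the primary assay.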
Consider `CCCn1ccnc1CN1CCC2(CC1)CC(C(=O)O)N(C(C)=O)C2` (stereo not shown) [CBK306691], for which the “% of control remaining” value is on record as 91.1587.

Turning to `COc1cc(/C=N/n2c(S)nnc2C(F)(F)F)cc(Br)c1O` [CBK265321], the “% of control remaining” value came out at 90.8065.

For `Cc1nc(-c2cccnc2)[nH]c(=O)c1CCC(=O)N1CCNC(C)C1` (stereo not shown) [CBK304163], the “% of control remaining” value came to 115.712.

Turning to `CN(Cc1ccccc1)C(=O)c1ccccc1NC(=O)c1ccccc1` [CBK267818], the “% of control remaining” value is reported as 72.5058.

Regarding `O=C(NC1CC2(CCOCC2)Oc2ccccc21)c1cccs1` (stereo not shown) [CBK285377], the “% of control remaining” value is recorded as 102.893.

`O=C(Nc1cccc2cccnc12)c1sc2ccccc2c1Cl` [CBK262132]: the “% of control remaining” value is given as 113.991.

With `CC(C)(C)c1ccc(NC(=O)N(Cc2ccccc2C(F)(F)F)CC2CCNCC2)cc1` [CBK049752], the “% of control remaining” value is listed as 100.71.

Turning to `Cc1n[nH]c(C)c1CC(=O)NC(Cc1cccs1)c1nccs1` (stereo not shown) [CBK285093], the “% of control remaining” value is reported as 110.669.

In the case of `COc1ccc(NC(=O)CSc2ncnc3sc(C)cc23)c(OC)c1` [CBK277541], the “% of control remaining” value is listed as 124.912.

As to `FC(F)(F)c1ccnc(OC2CCNC2)n1` (stereo not shown) [CBK113296], the “% of control remaining” value worked out at 89.669.

Regarding `Cc1cc(C)n2ncc(C(=O)N3CCCC3c3ccsc3)c2n1` (stereo not shown) [CBK305616], the “% of control remaining” value came to 77.1396.

On to `Cc1cccc(NCC(=O)N/N=C/c2cc3ccccc3nc2Cl)c1` [CBK261236], for which the “% of control remaining” value stood at 104.61.

As for `CC(=O)Nc1ccc(-c2nc3ccc(-c4ccc5nc(-c6ccc(NC(C)=O)cc6)oc(=O)c5c4)cc3c(=O)o2)cc1` [CBK261391], the “% of control remaining” value is 90.1152.

As for `Clc1ccc(Cl)c(N/N=C(\c2ccccc2)c2cccnc2)c1` [CBK015932C], the “% of control remaining” value is 72.0169.

For the compound `CC(C)NC(=O)Cn1c(-c2cccs2)cc2cccnc21` [CBK282454], the “% of control remaining” value stood at 109.007.

For the compound `CCOC(=O)CN1CCN(C(=O)Nc2ccccc2Br)CC1` [CBK044156], the “% of control remaining” value turned out to be 106.533.

For `Cc1cccc(-n2c(SCC(=O)Nc3ccc(Br)cc3F)nnc2-c2ccccc2)c1` [CBK265903], the “% of control remaining” value came out at 108.748.

`COc1ccc(C(NC(=O)C2CCC(N)CC2)c2ccccc2C)cn1` (stereo not shown) [CBK078551]: the “% of control remaining” value is recorded as 61.1206.

As for `Cc1ccc(C(=O)N2CCC(C(=O)NC(c3ccccc3)c3ccc4ccccc4n3)CC2)cc1` (stereo not shown) [CBK059663], the “% of control remaining” value is reported as 98.8865.

On to `C(=C\c1nccnc1OCCOc1ccccc1)/c1ccccc1` [CBK106885], for which the “% of control remaining” value was determined as 95.5944.

As for `FC(F)(F)c1nc2ccccc2nc1SCCc1ccccn1` [CBK103731], the “% of control remaining” value is on record as 96.9614.

For the compound `C=C(C)CN1CCN(C(=O)c2[nH]c3ccc(OCC)cc3c2C)CC1` [CBK282666], the “% of control remaining” value stood at 107.9.

Consider `COc1ccc(C(NC(=O)C2CCN(S(C)(=O)=O)CC2)c2ccccc2C)cn1` (stereo not shown) [CBK059738], for which the “% of control remaining” value is on record as 91.9192.

As to `NNC(=O)/C(=C\c1cccc([N+](=O)[O-])c1)NC(=O)c1ccc(Br)o1` [CBK262573], the “% of control remaining” value worked out at 109.679.

In the case of `C[n+]1cn(/N=C/c2ccco2)cn1` [CBK028562I], the “% of control remaining” value amounted to 127.765.

For `O=C(c1cccc(F)c1)N1CCCC(c2cc3cccnc3[nH]2)C1` (stereo not shown) [CBK284939], the “% of control remaining” value was found to be 74.3075.

Take `CC(C)c1nc(NCCc2nnc3n2CCCC3)nc(N(C)C)n1` [CBK306426]: the “% of control remaining” value was 73.044.

As to `CCN(CC)CCCNc1c([N+](=O)[O-])c(=O)n(C)c2ccccc12` [CBK264893], the “% of control remaining” value is recorded as 86.6252.

Consider `Clc1cccc(C2N(Cc3ccccc3)CCN2Cc2ccccc2)c1` [CBK261222], for which the “% of control remaining” value is recorded as 93.3215.

Turning to `COc1cc2c(cc1OC)CN(Cc1ccc(OCc3ccccc3)c(OC)c1)CC2` [CBK033974], the “% of control remaining” value is 104.77.

For the compound `O=C(CN(C(=O)CNC(=O)c1cccs1)c1cccc(C(F)(F)F)c1)NC1CCCCC1` [CBK084697], the “% of control remaining” value came to 107.364.

For `CCOc1cc(/C=C(/C#N)c2nc3ccccc3[nH]2)ccc1OCc1ccc(C(=O)O)o1` [CBK267923], the “% of control remaining” value is reported as 117.612.

`CCOc1ccc(N(Cc2ccc(C(=O)O)cc2)S(C)(=O)=O)cc1` [CBK287231]: the “% of control remaining” value came out at 80.6427.

Take `CCNC(=O)N[C@@H]1C=C[C@@H](c2c(C)nn(CCC#N)c2C)C1` [CBK289171]: the “% of control remaining” value is 84.622.

On to `O=C(NCCc1ccc(Cl)cc1)C1(Cc2cccc(-c3cccnc3)c2)CCOCC1` [CBK285606], for which the “% of control remaining” value is given as 81.2025.

As for `Cc1occc1C(=O)Nc1nc(CC(=O)N(C)Cc2ccsc2)cs1` [CBK305631], the “% of control remaining” value is on record as 78.3476.

As to `COC(=O)CNC(=O)C1CC(=O)N(c2ccccc2Br)C1` (stereo not shown) [CBK296672], the “% of control remaining” value came to 81.242.

Consider `O=C(c1ccc(F)cc1)N1CCC(Oc2nccnc2OCc2ccc(Cl)c(Cl)c2)CC1` [CBK160721], for which the “% of control remaining” value was 92.9638.

With `CCn1cc(S(=O)(=O)Nc2ccc3c(ccn3C)c2)c(C)n1` [CBK282818], the “% of control remaining” value amounted to 56.3835.

On to `Cc1cc(NS(=O)(=O)c2c(C)nn(C)c2Cl)n(C)n1` [CBK067245], for which the “% of control remaining” value came to 74.5155.
